# Source: PubChem BioAssay AID2546 (National Center for Advancing Translational Sciences (NCATS), 2010)
# The campaign covered roughly 310,000 compounds. About 11,000 (3.5%) were called active. Inconclusive results, whose numbers are uncertain, are shown with a selection of clear calls. Calls follow the shape of the dose curve; as a rule, active = well fitted inhibition curve with a large enough effect; inconclusive = small, poorly fitted or top-dose-only effect, or effect the other way; inactive = flat fitted curve, though single readings scatter. Potencies of inconclusive entries are left out as doubtful fits.
# Experiment: VP16 counterscreen qHTS for inhibitors of ROR gamma transcriptional activity;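 also: Gal4-VP16 expression switched on by copper sulfate through the metallothionein promoter; nearly all actives have a fitted effect of over 50% in size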
# Conditions: Drosophila S2 Gal4-VP16 UAS-luciferase, luminescence, 20 h; series mostly up to 53.6 µM
# Potency is read from the fitted curve at half-maximal effect; tags tell the direction and shape of the fitted curve.
row,Compound,Potency
1,O=C(/C=C/c1ccccc1)c1ccoc1,"inconclusive [inhibitor, single point]"
2,O=C1CCCc2c1cc(-c1ccccc1)n2-c1ccccc1,"inconclusive [inhibitor, partial curve]"
3,Cc1cc(N)n2ncc(-c3ccc(F)cc3)c2n1,inactive
4,Cn1ccnc1SCC(=O)c1cc2ccccc2o1,inactive
5,O=C(Cn1ccc2ccccc2c1=O)NCCC(=O)NC1CCN(Cc2ccccc2)CC1,"inconclusive [inhibitor, full curve, poor fit]"
6,Cc1cccc(C(=O)Nc2ccc3c(c2)nc(C)n3C)c1,"inconclusive [inhibitor, single point]"
7,C/C(=N\Nc1nc(C)cc(-c2ccccc2)n1)c1ccc(F)cc1,active: 7.08 µM
8,CCN(C(=O)C(C)N1C(=O)/C(=C/c2ccco2)SC1=S)C1CCS(=O)(=O)C1 (configuration not stated),inactive
9,COc1cc(NC(=O)C2CC(c3cccc(OC)c3OC)=NO2)cc(OC)c1OC (configuration not stated),"inconclusive [inhibitor, single point]"
10,Cc1ccccc1Nc1nc2ccccc2s1,"inconclusive [inhibitor, single point]"
11,COc1ccc(CNC(=S)N/N=C(\C)c2ccc(OC)cc2)cc1,active: 5.01 µM
12,O=C(CSc1nc(O)cc(=O)[nH]1)C1CC1,inactive
13,O=S(=O)(NC(=S)c1ccccc1)c1ccc(F)cc1,"inconclusive [inhibitor, single point]"
14,CCc1cc[n+](C2=C([O-])c3ccccc3C(=O)/C2=N\S(=O)(=O)c2cccs2)cc1,active: 15.8 µM
15,CNS(=O)(=O)c1cc2c3c(cccc3c1)C(=O)NC2=O,inactive
16,Cc1nc(NC(=O)/C=C/c2ccccc2)n[nH]1,"inconclusive [activator, single point]"
17,O=C(c1ccccn1)N1N=C2/C(=C/c3ccccc3)CCCC2C1c1ccccc1 (configuration not stated),inactive
18,Cc1ccc2sc(N(CCCN(C)C)C(=O)c3nc4ccccc4s3)nc2c1C,inactive
19,Cc1ccc(-n2ncc3c(NNC(=O)c4ccco4)ncnc32)cc1C,active: 7.08 µM
20,CN(C)c1ccc(-c2nc(NCCc3cnc[nH]3)c3ccccc3n2)cc1,"inconclusive [inhibitor, single point]"
21,Cc1nc(NC(=S)Nc2ccccc2)sc1C,active: 5.01 µM
22,Cc1cccc(NC(=O)CSc2c3c(nc4ccccc24)CCC3)n1,inactive
23,CCOC(=O)C1=C(C)NC(=S)N(C(C)=O)C1c1ccccc1 (configuration not stated),"inconclusive [inhibitor, single point]"
24,CCc1nnc(NC(=O)CSc2nc(-c3ccccc3)cc(-c3ccc(OC)cc3)c2C#N)s1,inactive
25,Cc1c(CCC(=O)NCCCCCC(=O)O)c(=O)oc2cc3occ(-c4ccccc4)c3cc12,"inconclusive [inhibitor, full curve]"
26,CCc1nnc(NC(=O)CSc2nc(C)cs2)s1,"inconclusive [inhibitor, single point]"

row,Compound,Potency
1,Cc1ccn2c(-c3csc(NCc4ccccc4)n3)c(C)nc2c1,"inconclusive [inhibitor, single point]"
2,Cc1ccc(Nc2nc(-c3ccc(F)cc3)cs2)nc1,"inconclusive [activator, full curve, poor fit]"
3,CC(C)Oc1ccc(CN2CCC(n3nccc3NC(=O)C3CC3)CC2)cc1,"inconclusive [inhibitor, single point]"
4,Cc1cc(C)c(C#N)c(SCc2c(F)cccc2[N+](=O)[O-])n1,"inconclusive [inhibitor, partial curve, poor fit]"
5,CC(=O)c1c(C)[nH]c(C(=O)CSc2nc3ccccc3n2C)c1C,"inconclusive [inhibitor, single point]"
6,O=C(NC(=S)NNC(=O)c1ccccc1O)c1cccc([N+](=O)[O-])c1,inactive
7,COc1ccc(CN2C(=O)CCC(C(=O)O)C2c2ccccc2)cc1 (configuration not stated),inactive
8,CC(=O)c1ccc(OCC(=O)NC(=O)NC2CCCCC2)cc1,"inconclusive [inhibitor, partial curve]"
9,Cc1ccc(NC(=O)CN2C(=S)NC(C)(C)CC2C)cc1Cl (configuration not stated),"inconclusive [inhibitor, single point]"
10,C/C(Cl)=C\Cn1c(O)c(N=O)c2ccccc21,"inconclusive [inhibitor, single point]"
11,COc1cc2nc(N3CCN(C(=O)C4COc5ccccc5O4)CC3)nc(N)c2cc1OC (configuration not stated),"inconclusive [inhibitor, single point]"
12,O=C(CCC(=O)N1CCN(S(=O)(=O)c2ccc(Cl)cc2)CC1)NCc1ccccc1,"inconclusive [inhibitor, single point]"
13,CCCC(=O)N(c1ccc2oc(=O)sc2c1)S(=O)(=O)c1ccccc1,"inconclusive [inhibitor, single point]"
14,CNC(=O)CN1C(=O)CSc2nc(C)cc(C)c21,inactive
15,CN(CCO)S(=O)(=O)c1ccc2c(c1)C(=NNC(N)=O)c1cc(S(=O)(=O)N(C)CCO)ccc1-2,inactive
16,CCNC(=S)N/N=C/c1ccc(OCC(=O)Nc2ccc(C)cc2)cc1,"inconclusive [inhibitor, single point]"
17,CC(c1ccc(F)cc1)n1c(-c2cccs2)n[nH]c1=S (configuration not stated),active: 10 µM
18,N#C/C(=C(/N)Sc1ccc(N)cc1)c1ccccc1C(F)(F)F,"inconclusive [inhibitor, single point]"
19,CCCC(=O)N1CC(=O)Nc2ccc(C)cc2C1c1ccccc1 (configuration not stated),inactive
20,CC(=O)Nc1cccc(-c2nnc(-c3ccccc3)o2)c1,inactive
21,Cc1cc(C)nc(Nc2n[nH]c(-c3ccc(N)cc3)n2)n1,"inconclusive [inhibitor, single point]"
22,COc1ccc(C(=O)Oc2ccc(F)cc2C(=O)/C=C/c2ccc(OC)c(OC)c2)cc1,"inconclusive [inhibitor, single point]"
23,O=C(NNC(=O)c1cccs1)c1cccc(F)c1,inactive
24,O=C(CCS(=O)(=O)c1ccccc1)Nc1ccc(-c2nc3ccccc3s2)cc1,active: 5.62 µM
25,Cc1cccc(-n2c(=O)[nH]c3c(C(N)=O)nc(-c4ccccc4Cl)nc32)c1,"inconclusive [inhibitor, single point]"
26,CC12CN3CC(C)(CN(C1)C3c1ccccc1)C2O (configuration not stated),inactive

row,Compound,Potency
1,CC(C)[C@H](NS(=O)(=O)c1ccc2c(c1)OCCO2)C(=O)OCC(=O)Nc1cccc(Cl)c1Cl,"inconclusive [activator, single point]"
2,Cc1nc(NCC2CCCO2)c2nnn(Cc3ccccc3)c2n1 (configuration not stated),inactive
3,O=C(N/N=C/C=C/c1ccco1)c1cccc([N+](=O)[O-])c1,active: 10 µM
4,COc1ccc2nc(NNC(=O)C3COc4ccccc4O3)sc2c1 (configuration not stated),"inconclusive [inhibitor, single point]"
5,CN(C)S(=O)(=O)c1cccc(NC(=S)Nc2cccc3cnccc23)c1,"inconclusive [inhibitor, single point]"
6,Oc1ccc2ccccc2c1C=NC1CCCCC1,"inconclusive [inhibitor, single point]"
7,CCCCCCCCc1nc(SC(C)C(=O)O)n[nH]1 (configuration not stated),inactive
8,COc1ccccc1NS(=O)(=O)c1cccc(C(=O)N/N=C/c2ccc(C)o2)c1,active: 14.1 µM
9,CC(=O)Nc1ccc(-c2cn3cc(C)ccc3n2)cc1,"inconclusive [inhibitor, single point]"
10,CN(C(=O)c1ccc(S(=O)(=O)c2cccc(Cl)c2)c([N+](=O)[O-])c1)C1CCCCC1,"inconclusive [inhibitor, single point]"
11,COCCCNC(=S)N/N=C/c1ccc(N(C)C)cc1,active: 7.08 µM
12,Cc1sc2ncnc(Sc3nnnn3-c3ccccc3)c2c1C,"inconclusive [inhibitor, single point]"
13,CC(C)(C)c1ccc(O)c(/C=N\O)c1,"inconclusive [inhibitor, single point]"
14,COC(=O)C(NC(=O)c1ccccc1)=C(C)C,inactive
15,CCOc1ccc(-n2c(-c3ccco3)n[nH]c2=S)cc1,"inconclusive [inhibitor, partial curve]"
16,CCN(Cc1ccncc1)C(=O)c1ccccc1NS(=O)(=O)c1ccc(Br)cc1,"inconclusive [inhibitor, full curve, poor fit]"
17,CCCn1c(=O)c(-c2nc3ccccc3[nH]2)c(O)c2ccccc21,active: 2 µM
18,N#C/C(=C(/O)COc1ccc(Br)cc1)c1nnc2n1CCCCC2,"inconclusive [inhibitor, single point]"
19,CN(C)c1oc(-c2ccccc2F)nc1C#N,inactive
20,CC(C)(C)Cc1nnc(NC(=O)c2cc(-c3ccccc3)nc3ccccc23)s1,active: 12.6 µM
21,CC(Oc1ccc(Br)cc1)C(=O)NCc1ccccn1 (configuration not stated),"inconclusive [activator, full curve, poor fit]"
22,Fc1ccccc1CNC(=S)NC1CCCCC1,active: 7.94 µM
23,Cc1ccc(-c2cc(C(=O)Nc3ccc(S(=O)(=O)Nc4nccs4)cc3)c3ccccc3n2)c(C)c1,inactive
24,FC(F)(F)c1cccc(OCc2nnc3n2CCC3)c1,"inconclusive [inhibitor, partial curve]"
25,CNC(=O)NC(=O)C(C)OC(=O)CCCSc1nc2ccccc2s1 (configuration not stated),active: 4.47 µM
